Data from PubChem BioAssay (NCATS).
The shares of active, inactive and inconclusive entries below differ from those in the screen. For part of these data: Potencies of inconclusive entries are doubtful fits and often do not repeat. The source made the active and inactive calls. Unless noted, calls follow the shape of the dose curve; as a rule, active = well fitted curve in the direction sought with a large enough effect; inconclusive = small, poorly fitted or top-dose-only effect, or another doubt; inactive = no such curve, though single readings can be large; an effect the other way counts as inactive or inconclusive.

What was measured:
[1] = Cell Viability - Jurkat (AID 426;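 active = dose-dependent loss of cell ATP signal giving a full or clear fitted curve, ranked by lower potency value; inconclusive = weak partial curve or response only at the top dose; inactive = no loss of viability signal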;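 also: potency is read from the fitted curve at half-maximal effect; cells exposed to compound for 40 hours at 37 °C before ATP read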); details: qHTS
Procedure, shortened: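 Seed 5000 Jurkat E6-1 cells/well; add compound; incubate 40 hr at 37 °C; add CellTiter-Glo; wait 20 min at room temperature; read luminescence. Fit concentration-response with Hill equation for AC50.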

[2] = Cell Viability - Hek293 (AID 427;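 active = compounds whose dose-response curve shows a full or clear partial loss of cell viability, called from curve shape rather than a numeric limit; inconclusive = weak partial curves or an effect only at the top dose; inactive = no dose-dependent loss of viability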;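 also: potency is read from the fitted curve at half-maximal effect; cells exposed to compound for 40 hours at 37 °C before reading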); details: qHTS
Procedure, shortened: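 Luminescent ATP read-out (CellTiter-Glo, 20 min RT) after 40 hr compound exposure at 37 °C in complete medium. Signal normalized to DMSO (basal) and 100 uM tamoxifen (100% inhibition); concentration-response fitted with the standard Hill equation to give AC50.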

[3] = Cell Viability - SK-N-SH (AID 435; calls by dose curve;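 also: potency is read from the fitted curve at half-maximal effect; compound exposure lasted 40 h at 37 °C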); details: SK-N-SH neuroblastoma cell viability qHTS
Procedure, shortened: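 CellTiter-Glo ATP luminescence, 20 min RT read; cells pre-plated 5 hr, compound 40 hr at 37 °C, 1500 cells/well, complete medium. Normalized DMSO = 0, 100 uM tamoxifen = 100% inhibition; Hill-fit AC50.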

[4] = Cell Viability - NIH 3T3 (AID 541); details: NIH 3T3 cell viability, qHTS; activity change, negative = cytotoxicity: at 92.2 µM (top of the series);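 also: cells exposed to compound for 40 hours; plate controls were DMSO alone for no effect and tamoxifen positive control for full effect; nearly all actives have a fitted effect of over 25% in size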
Procedure, shortened: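 AC50 values reflect concentration-dependent loss of intracellular ATP in NIH 3T3 cells after 40 hr treatment in complete culture medium, quantified by luciferase-based luminescence.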

[5] = Cell Viability - H-4-II-E (AID 543); details: H-4-II-E rat hepatoma viability; series mostly up to 92.2 µM;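 also: potency is read from the fitted curve at half-maximal effect; cells exposed to compound for 40 hours; nearly all actives have a fitted effect of over 35% in size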
Procedure, shortened: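 Here, cytotoxicity is measured in the rat hepatoma line H-4-II-E as loss of intracellular ATP after 40 hr compound treatment, detected by luciferase luminescence.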

[6] = Cellular Toxicity (caspase-3) Jurkat (AID 655); details: Jurkat caspase-3 activation, luminescence; caspase-3 activation: at 92.2 µM (top of the series), DMSO = 0%, tamoxifen = 100%;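 also: cells exposed to compound for 16 h at 37 °C before reading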
Procedure, shortened: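 Luminescent caspase-3/7 readout (aminoluciferin substrate cleavage) in human T-cell leukemia Jurkat cells after 16 hr compound exposure. Concentration-response normalized to DMSO and 100 uM tamoxifen; AC50 by standard Hill equation.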

[7] = Cellular Toxicity (caspase-3) H-4-II-E (AID 663); details: H-4-II-E rat hepatoma; Potency: caspase-3 activation; caspase-3 activation: at 92.2 µM (top of the series), scaled: DMSO 0%, 100 µM tamoxifen 100%;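 also: cells exposed to compound for 16 hr before readout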
Procedure, shortened: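 Luminescence from caspase-cleaved aminoluciferin substrate, read 20 min after reagent addition, reports caspase 3/7 activation in rat H-4-II-E cells after 16 hr compound exposure. Normalized to DMSO (basal) and 100 uM tamoxifen (100%); AC50 from Hill fits.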

[8] = Cell Viability - LYMP2-001 (AID 921); details: LYMP2-001 lymphoblastoid cell viability; series mostly up to 92.2 µM; also: potency is read from the fitted curve at half-maximal effect; nearly all actives have a fitted effect of over 70% in size
Procedure, shortened: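 CellTiter-Glo luminescence (intracellular ATP) after 24 hr compound exposure at 37 C, 2500 lymphoblastoid cells/well in complete medium. AC50 fitted with standard Hill equation; tetraoctylammonium bromide positive control.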

[9] = MultiTox-Fluor Cytotoxicity Assay - LYMP1-001 - Live Cells (AID 947); details: LYMP1-001 lymphoblastoid cells, live-cell protease fluorescence viability; series mostly up to 92.2 µM;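 also: 0% = DMSO only and full inhibition = tetraoctylammonium bromide control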
[10] = Cell Viability - LYMP2-003 (AID 965); details: LYMP2-003 lymphoblastoid cell viability; series mostly up to 92.2 µM;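 also: potency is read from the fitted curve at half-maximal effect; cells exposed to compounds for 24 h before reading; nearly all actives have a fitted effect of over 50% in size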
Procedure, shortened: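 CellTiter-Glo luminescence (cellular ATP) after 24 h compound exposure at 37 C in complete medium; 2500 cells/well, 5 h settling beforehand. Concentration-response fitted to standard Hill equation for AC50. Tetraoctylammonium bromide served as positive control.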

[11] = Cell Viability - LYMP2-005 (AID 967); details: LYMP2-005 lymphoblastoid cell viability; series mostly up to 92.2 µM; also: potency is read from the fitted curve at half-maximal effect
Procedure, shortened: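 Steps: seed 2500 LYMP2-005 cells/well, incubate 5 h at 37 C, add compound, incubate 24 h at 37 C, add CellTiter-Glo, wait 30 min at RT, read luminescence. Concentration-response data fitted to Hill equation for AC50.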

[12] = Cell Viability - LYMP2-009 (AID 968); details: LYMP2-009 lymphoblastoid cell viability; series mostly up to 92.2 µM; also: potency is read from the fitted curve at half-maximal effect; nearly all actives have a fitted effect of over 55% in size
[13] = Cell Viability - LYMP2-011 (AID 969); details: LYMP2-011 lymphoblastoid cells viability; series mostly up to 92.2 µM; also: potency is read from the fitted curve at half-maximal effect; nearly all actives have a fitted effect of over 60% in size
Procedure, shortened: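 Acute toxicity is scored as a concentration-dependent drop in intracellular ATP of a human lymphoblastoid line after 24 hr treatment. Values are AC50s modeled with the Hill equation.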

[14] = Cell Viability - LYMP2-013 (AID 970); details: LYMP2-013 lymphoblastoid cells viability; activity change, negative = cytotoxic: at 92.2 µM (top of the series); also: potency is read from the fitted curve at half-maximal effect; nearly all actives have a fitted effect of over 55% in size
Procedure, shortened: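 Acute toxicity was measured in human lymphoblastoid cells (2500/well) exposed to compound titrations for 24 hr, with ATP luminescence (CellTiter-Glo) as read-out and AC50 fitted by Hill equation.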

[15] = Cell Viability - LYMP2-015 (AID 971); details: LYMP2-015 lymphoblastoid cell viability; series mostly up to 92.2 µM; also: potency is read from the fitted curve at half-maximal effect; nearly all actives have a fitted effect of over 55% in size
Procedure, shortened: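 Acute toxicity was scored as a concentration-dependent drop in intracellular ATP in lymphoblastoid cells after 24 hr compound exposure in complete medium. Detection used CellTiter-Glo luciferase luminescence.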

[16] = Cell Viability - LYMP2-019 (AID 973); details: LYMP2-019 lymphoblastoid cell line viability; series mostly up to 92.2 µM; also: potency is read from the fitted curve at half-maximal effect; nearly all actives have a fitted effect of over 55% in size
Procedure, shortened: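 Cells plated at 2500/well and allowed 5 hr at 37 C before compound addition. After 24 hr incubation, CellTiter-Glo reagent was added, plates sat 30 min at room temperature, and luminescence was recorded.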

[17] = Cell Viability - LYMP2-021 (AID 974); details: LYMP2-021 lymphoblastoid cells viability; series mostly up to 92.2 µM
Procedure, shortened: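 Concentration-response cytotoxicity in a human lymphoblastoid line: 24 hr treatment at 37 C in complete culture medium, tetraoctylammonium bromide as positive control, luminescent ATP quantitation as viability measure.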

[18] = Cell Viability - LYMP2-023 (AID 975); details: LYMP2-023 lymphoblastoid cell viability; series mostly up to 92.2 µM
Procedure, shortened: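 Concentration-dependent drop in intracellular ATP measures acute cytotoxicity in a human lymphoblastoid line treated for 24 hours in complete culture medium. AC50 values are taken from Hill-equation fits of qHTS data.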

[19] = Cell Viability - LYMP2-002 (AID 977); details: LYMP2-002 lymphoblastoid cell viability, qHTS; activity change, negative = cytotoxic: at 92.2 µM (top of the series); also: potency is read from the fitted curve at half-maximal effect
Procedure, shortened: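 Luminescent ATP readout (CellTiter-Glo, 30 min room temperature) after 24 h compound exposure at 37 C of a human lymphoblastoid line, 2500 cells/well. AC50 values derived by standard Hill fitting of qHTS concentration-response data.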

[20] = Cell Viability - LYMP2-006 (AID 978); details: LYMP2-006 lymphoblastoid cell viability, qHTS; series mostly up to 92.2 µM; also: potency is read from the fitted curve at half-maximal effect; nearly all actives have a fitted effect of over 60% in size
Procedure, shortened: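 qHTS, 1536-well; 2500 cells/well, 5 hr 37 C; cpd 24 hr 37 C; CellTiter-Glo 30 min RT; luminescence. Tetraoctylammonium bromide pos. ctrl. AC50 via Hill eqn.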

[21] = Cell Viability - LYMP2-007 (AID 979); details: LYMP2-007 lymphoblastoid cell viability; activity change, negative = cytotoxicity: at 92.2 µM (top of the series);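 also: potency is read from the fitted curve at half-maximal effect; cells exposed to compound for 24 h before reading; nearly all actives have a fitted effect of over 60% in size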
Procedure, shortened: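 Acute toxicity is scored as a concentration-dependent fall in intracellular ATP in human lymphoblastoid cells treated 24 hr at 37 C, measured by luciferase luminescence; Hill-equation modelling yields AC50.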

[22] = Cell Viability - LYMP2-008 (AID 980); details: LYMP2-008 lymphoblastoid cell viability, qHTS; also: potency is read from the fitted curve at half-maximal effect; nearly all actives have a fitted effect of over 60% in size
Procedure, shortened: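 Acute cytotoxicity is scored as concentration-dependent loss of cellular ATP in a human lymphoblastoid line after 24 hr treatment at 37 C. ATP is quantified by luciferase luminescence.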

[23] = Cell Viability - LYMP2-010 (AID 981); details: LYMP2-010 lymphoblastoid cell viability, qHTS; series mostly up to 92.2 µM
Procedure, shortened: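 Acute toxicity is scored as a concentration-dependent loss of cellular ATP in human lymphoblastoid cells after 24 hr compound exposure in complete medium. Tetraoctylammonium bromide is the positive control.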

[24] = Cell Viability - LYMP2-014 (AID 983); details: LYMP2-014 lymphoblastoid cells, viability qHTS; series mostly up to 92.2 µM; also: potency is read from the fitted curve at half-maximal effect; nearly all actives have a fitted effect of over 50% in size
Procedure, shortened: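 Decrease in intracellular ATP after 24 hr treatment at 37 C, measured by luciferase luminescence, indicated cytotoxicity. Concentration-response data were fitted with the standard Hill equation to give AC50.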

[25] = Cell Viability - LYMP2-016 (AID 984); details: LYMP2-016 lymphoblastoid cell viability, qHTS; activity change, negative = cytotoxicity: at 92.2 µM (top of the series)
Procedure, shortened: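 qHTS, 1536-well: 2500 LYMP2-016 cells/well, 5 hr 37 C, compound added, 24 hr 37 C, CellTiter-Glo 30 min RT, luminescence. Tetraoctylammonium bromide positive control. AC50 via Hill fit.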

[26] = Cell Viability - LYMP2-020 (AID 986); details: activity change, negative = viability loss: at 92.2 µM (top of the series)
Procedure, shortened: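 Acute cytotoxicity in a human lymphoblastoid line is scored as a concentration-dependent fall in cellular ATP after 24 hr at 37 C in complete medium. The positive control is tetraoctylammonium bromide, and potency is given as Hill-fit AC50.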

[27] = Cell Viability - LYMP2-022 (AID 987); details: LYMP2-022 lymphoblastoid cell viability; series mostly up to 92.2 µM
Procedure, shortened: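 Acute toxicity in a human lymphoblastoid line is scored as decreased intracellular ATP after 24 hr compound treatment at 37 C. ATP is measured by CellTiter-Glo luminescence; curves are fitted with the Hill equation to give AC50.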

[28] = Cell Viability - LYMP2-026 (AID 989); details: LYMP2-026 lymphoblastoid cell viability, qHTS; series mostly up to 92.2 µM; also: potency is read from the fitted curve at half-maximal effect; nearly all actives have a fitted effect of over 50% in size
Procedure, shortened: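 Concentration-dependent loss of intracellular ATP in human lymphoblastoid cells after 24 hr at 37 C, quantified by luciferase luminescence. AC50 derived from standard Hill equation.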

[29] = molecular target: Glucocorticoid receptor (Homo sapiens) (UniProt P04150); assay: qHTS assay for small molecule antagonists of glucocorticoid receptor signaling (AID 588533; active = well fitted inhibition curve with a large enough effect in the signal ratio, with a control signal flat, not every such curve was filed as active; inconclusive = small, poorly fitted or top-dose-only effect, or effect the other way, or a change in a side signal; the % refers to the signal ratio;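 also: cells stimulated with 2 nM dexamethasone as agonist; % is scaled to controls: 0 for no effect and ±100 for the full control effect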); details: HeLa MMTV-bla, GRE beta-lactamase ratio, antagonist mode, 18 h; activity change, negative = inhibition: at 76.8 µM (top of the series)
[30] = molecular target: Vitamin D3 receptor (Homo sapiens) (UniProt P11473); assay: qHTS assay for small molecule antagonists of vitamin D receptor signaling (AID 588541; calls by dose curve;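 also: receptor activated by calcitriol during compound treatment; % is scaled to controls: 0 for no effect and ±100 for the full control effect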); details: HEK293T VDR-UAS-bla, beta-lactamase ratio, antagonist mode; activity change, negative = inhibition: at 76.7 µM (top of the series)
Tags tell the direction and shape of the fitted curve.

Oc1ccc(O)c2c(O)cccc12
inactive: activity change, negative = cytotoxicity [4] -29% | Potency [9]
active: Potency [1] 30 µM | Potency [8] 50.1 µM | Potency [17] 50.1 µM | Potency [27] 50.1 µM
inconclusive: Potency [2] 68.9 µM [partial curve] | Potency [3] 86.8 µM [partial curve] | Potency [5] 50.1 µM [falling, partial curve] | caspase-3 activation [6] 47.6% | caspase-3 activation [7] 41.1% | Potency [10] 50.1 µM [cytotoxic, partial curve] | Potency [11] 50.1 µM [cytotoxic, partial curve, poor fit] | Potency [12] 50.1 µM [cytotoxic, partial curve, poor fit] | Potency [13] 50.1 µM [cytotoxic, partial curve, poor fit] | Potency [14] 79.4 µM [cytotoxic, single point] | Potency [15] 50.1 µM [cytotoxic, partial curve, poor fit] | Potency [16] 39.8 µM [cytotoxic, partial curve] | Potency [18] 50.1 µM [cytotoxic, partial curve, poor fit] | Potency [19] 50.1 µM [cytotoxic, partial curve, poor fit] | Potency [20] 39.8 µM [cytotoxic, partial curve, poor fit] | Potency [21] 50.1 µM [cytotoxic, partial curve, poor fit] | Potency [22] 50.1 µM [cytotoxic, partial curve] | Potency [23] 50.1 µM [cytotoxic, partial curve] | Potency [24] 79.4 µM [cytotoxic, single point] | Potency [25] 50.1 µM [cytotoxic, partial curve] | Potency [26] 50.1 µM [cytotoxic, partial curve, poor fit] | Potency [28] 50.1 µM [cytotoxic, partial curve, poor fit] | activity change, negative = inhibition [29] -38.4% | activity change, negative = inhibition [30] -33%
